{"source": "PubChem BioAssay AID504339", "about": "(National Center for Advancing Translational Sciences (NCATS), 2011)", "note": "Among all 390,000 compounds or so, about 17,000 (4.4%) were called active. The shares of active, inactive and inconclusive entries below differ from those in the screen. The call rests on the fitted dose curve; in most records, active means well fitted inhibition curve with a large enough effect; inconclusive means small, poorly fitted or top-dose-only effect; inactive means no such curve, though single readings can be large or run the other way. Where the call is inconclusive, the potency comes from a doubtful curve fit. On the % scale 0 is the no-effect control and ±100 the full control effect; potency means the concentration at half of the fitted maximal effect; tags describe the fitted curve by direction and shape.", "data": [{"target": "Lysine-specific demethylase 4A (Homo sapiens) (UniProt O75164)", "sequence (O75164 whole entry, looked up, the tested form may be a part)": "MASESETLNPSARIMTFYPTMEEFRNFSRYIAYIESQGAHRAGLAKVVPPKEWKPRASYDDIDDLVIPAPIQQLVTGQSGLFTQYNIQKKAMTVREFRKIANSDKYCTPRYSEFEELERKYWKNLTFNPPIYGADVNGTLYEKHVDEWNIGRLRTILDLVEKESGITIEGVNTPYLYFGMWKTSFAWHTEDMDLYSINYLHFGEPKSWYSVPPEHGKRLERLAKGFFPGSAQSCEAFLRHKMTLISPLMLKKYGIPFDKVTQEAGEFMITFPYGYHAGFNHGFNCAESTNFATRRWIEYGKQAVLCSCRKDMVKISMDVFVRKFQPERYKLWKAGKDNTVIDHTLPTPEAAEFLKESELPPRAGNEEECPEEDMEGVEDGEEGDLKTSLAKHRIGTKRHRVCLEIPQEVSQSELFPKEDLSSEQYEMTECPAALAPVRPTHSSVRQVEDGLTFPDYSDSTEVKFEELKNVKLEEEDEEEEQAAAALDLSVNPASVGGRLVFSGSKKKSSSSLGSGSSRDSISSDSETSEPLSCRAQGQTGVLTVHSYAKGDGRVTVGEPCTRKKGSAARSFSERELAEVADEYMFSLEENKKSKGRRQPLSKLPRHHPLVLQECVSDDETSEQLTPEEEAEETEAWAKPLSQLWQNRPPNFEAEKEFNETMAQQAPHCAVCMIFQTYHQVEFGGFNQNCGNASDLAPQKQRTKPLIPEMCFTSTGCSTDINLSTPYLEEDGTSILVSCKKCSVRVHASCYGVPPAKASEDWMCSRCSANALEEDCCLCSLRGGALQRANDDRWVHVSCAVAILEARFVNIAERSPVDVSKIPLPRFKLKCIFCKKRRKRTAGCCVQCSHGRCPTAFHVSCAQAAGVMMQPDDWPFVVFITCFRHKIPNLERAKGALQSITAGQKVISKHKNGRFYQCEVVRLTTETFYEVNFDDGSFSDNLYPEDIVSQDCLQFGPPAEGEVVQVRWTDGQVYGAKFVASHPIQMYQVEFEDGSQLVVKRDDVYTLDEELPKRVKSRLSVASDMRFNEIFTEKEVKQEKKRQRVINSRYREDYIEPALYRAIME", "assay": "qHTS Assay for Inhibitors of JMJD2A-Tudor Domain; further: nearly all actives have a fitted effect of over 50% in size", "settings": "AlphaScreen JMJD2A-Tudor / H3K4me3 peptide binding; activity change, negative = inhibition: at 114 µM (top of the series)", "values": [{"smiles": "CSc1ccccc1OCc1cc(C(=O)N(C)CCn2nc(C)cc2C)no1", "Potency": "active: 12.6 µM"}, {"smiles": "Cc1ccc(O)c(C(=O)c2cnc3c(c2)COc2ccccc2-3)c1", "Potency": "inconclusive: 56.2 µM [inhibitor, partial curve]"}, {"smiles": "CC(C)(C)C1CCC2(CC1)NC(=S)N(c1ccccc1)N2", "note": "(centres undefined)", "Potency": "inactive"}, {"smiles": "CC(NC(=S)NC(=O)c1ccccc1Br)c1ccccc1", "note": "(centres undefined)", "Potency": "inconclusive: 50.1 µM [inhibitor, partial curve]"}, {"smiles": "CCOC(=O)C1Nc2ccc(C(F)(F)F)cc2C2C=CCC12", "note": "(centres undefined)", "Potency": "active: 50.1 µM"}, {"smiles": "O=C(O)c1ccc(OCCCCCCOC2CCCCO2)cc1", "note": "(centres undefined)", "Potency": "inconclusive: 31.6 µM [inhibitor, partial curve]"}, {"smiles": "O=C(O)c1cc(NN=Nc2ccc(Br)cc2)cc([N+](=O)[O-])c1", "Potency": "inconclusive: 35.5 µM [inhibitor, partial curve]"}, {"smiles": "COc1ccc(OC)c(CNC(=O)CN2CC(C)Sc3ccccc32)c1", "note": "(centres undefined)", "Potency": "inconclusive: 50.1 µM [inhibitor, partial curve]"}, {"smiles": "COc1ccc(CNC2CCSc3ccccc32)cc1OC", "note": "(centres undefined)", "Potency": "active: 8.91 µM"}, {"smiles": "C=CC[n+]1ccc(/C=C2\\C=Cc3cc(C)ccc3N2CC)c2ccccc21", "Potency": "active: 20 µM"}, {"smiles": "CC(C(=O)OCC(=O)Nc1ccc(S(=O)(=O)N2CCCCC2)cc1)N1C(=O)c2ccccc2C1=O", "note": "(centres undefined)", "Potency": "inconclusive: 70.8 µM [inhibitor, single point]"}, {"smiles": "O=C(Nc1sc2c(c1C(=O)O)CCC2)C(=O)N1CCOCC1", "Potency": "inconclusive: 44.7 µM [inhibitor, partial curve]"}, {"smiles": "N#CCC(=O)N/N=C/c1cn(Cc2ccccc2C#N)c2ccccc12", "Potency": "inactive"}, {"smiles": "CC1Cc2ccccc2N1CC(=O)Nc1ccc2c(c1)OCCCO2", "note": "(centres undefined)", "Potency": "inconclusive: 56.2 µM [inhibitor, partial curve]"}, {"smiles": "O=C(Nc1ccc(N2CCCCC2)cc1)C1CCCN1S(=O)(=O)c1ccc(F)cc1", "note": "(centres undefined)", "Potency": "inconclusive: 50.1 µM [inhibitor, partial curve]"}, {"smiles": "O=C(NC(=S)NNC(=O)c1cnccn1)c1ccc(Cl)cc1", "Potency": "active: 22.4 µM"}, {"smiles": "COc1ccccc1NC(=O)c1sc2nc(N3CCOCC3)c3c(c2c1N)CCCC3", "Potency": "inactive"}, {"smiles": "COc1cccc(-n2nnc(-c3nc(-c4ccccc4F)no3)c2C)c1", "Potency": "inactive"}, {"smiles": "CC(=O)N1CCC2(CC1)C/C(=N\\NC(=S)Nc1ccccc1F)c1cc(O)ccc1O2", "Potency": "inconclusive: 14.1 µM [inhibitor, partial curve]"}, {"smiles": "OCc1cccc[n+]1CCc1ccccc1", "Potency": "inactive"}, {"smiles": "Cc1c(C2Nc3ccccc3C(=O)N2O)cnn1C", "note": "(centres undefined)", "Potency": "inconclusive: 89.1 µM [inhibitor, partial curve, poor fit]"}, {"smiles": "O=C(O)C1C2C=CC(C2)C1C(=O)Nc1ccccc1Br", "note": "(centres undefined)", "Potency": "inconclusive: 28.2 µM [inhibitor, partial curve]"}, {"smiles": "Cc1ccc(N2CCN(S(=O)(=O)c3ccc4[nH]c5c(c4c3)CCCCC5)CC2)c(C)c1", "Potency": "inconclusive: 20 µM [inhibitor, full curve]"}, {"smiles": "CCOc1cccc(-c2nnc3sc(-c4cc(OC)c(OC)c(OC)c4)nn23)c1", "Potency": "inactive"}, {"smiles": "O=C(CSc1ncccc1-c1nc2ccccc2[nH]1)NCc1ccco1", "Potency": "active: 35.5 µM"}, {"smiles": "CCOc1cc(CNn2cn[nH]c2=S)cc(Cl)c1OCc1ccccc1F", "Potency": "inconclusive: 79.4 µM [inhibitor, partial curve]"}, {"smiles": "CC(C)(C)OC(=O)CNC(=O)c1nc[nH]c1C(=O)N1CCc2ccccc2C1", "Potency": "inactive"}, {"smiles": "CCOc1ccc(C(=O)/C=C/Nc2ccc(S(=O)(=O)Nc3cc(C)nc(C)n3)cc2)cc1", "Potency": "inconclusive: 28.2 µM [inhibitor, full curve]"}, {"smiles": "COc1ccc(N=Nc2ccc(O)c3ncccc23)cc1", "Potency": "active: 22.4 µM"}, {"smiles": "O=C(NC1CCCC1)C(c1ccncc1)N(Cc1ccco1)C(=O)c1ccc(-c2ccccc2)[nH]1", "note": "(centres undefined)", "Potency": "inconclusive: 28.2 µM [inhibitor, full curve]"}, {"smiles": "COc1ccccc1CNC(=O)CN1C(=O)C(C)N(c2ccc(C)cc2)C1=O", "note": "(centres undefined)", "Potency": "inconclusive: 89.1 µM [inhibitor, single point]"}, {"smiles": "CC(=O)Nc1nc2ccccc2n1Cc1ccc(Cl)cc1", "activity change, negative = inhibition": "inactive: 0.735% [at 11.4 µM]"}, {"smiles": "COc1ccccc1NCc1cc(=O)oc2c(C)c(O)ccc12", "Potency": "inconclusive: 25.1 µM [inhibitor, full curve]"}, {"smiles": "O=C(CSc1ccsc1[N+](=O)[O-])N1CCN(c2ccccc2)CC1", "Potency": "inconclusive: 25.1 µM [inhibitor, full curve]"}, {"smiles": "CCOC(=O)Cc1nnc(NC(=O)C(CC)Sc2nc(C)cc(=O)[nH]2)s1", "note": "(centres undefined)", "Potency": "inconclusive: 22.4 µM [inhibitor, full curve]"}, {"smiles": "CCOC(=O)COc1cc(OCC(=O)OCC)c2c3c(c(=O)oc2c1)CCCC3", "Potency": "inactive"}, {"smiles": "CCOc1ccc(NC(=S)NC(=O)/C=C/c2ccc(C)cc2)c([N+](=O)[O-])c1", "Potency": "inactive"}, {"smiles": "Cc1ccc(/C=N/n2c(-c3ccc(Cl)cc3)n[nH]c2=S)s1", "Potency": "inconclusive: 35.5 µM [inhibitor, single point]"}, {"smiles": "Cc1ccc(S(=O)(=O)N2CCCCC2)cc1NC(=O)COC(=O)c1cccn1C", "Potency": "inconclusive: 63.1 µM [inhibitor, partial curve, poor fit]"}, {"smiles": "COc1ccc2[nH]c(C(=O)NCc3ccccc3)c(C)c2c1", "Potency": "inactive"}, {"smiles": "Cc1ccc(NC(=O)N2C3CCCC2CC(NC(=O)C2CC2)C3)cc1", "note": "(centres undefined)", "Potency": "inconclusive: 3.55 µM [inhibitor, single point]"}, {"smiles": "Cc1ccsc1CN(C(=O)c1ccccc1)C1CCS(=O)(=O)C1", "note": "(centres undefined)", "Potency": "inactive"}, {"smiles": "CCSc1nnc(NC(=O)C2Cc3ccccc3CN2C(=O)c2ccco2)s1", "note": "(centres undefined)", "Potency": "active: 79.4 µM"}, {"smiles": "O=C(Nc1ccc(NC(=O)c2ccccc2)nc1)c1ccncc1", "Potency": "inconclusive: 15.8 µM [inhibitor, full curve]"}, {"smiles": "Oc1ccc(C2C[C@H]3CC[C@@H]2C3)cc1O", "note": "(some centres undefined)", "Potency": "active: 20 µM"}, {"smiles": "CCOc1ccc(OCC)c(NC(=O)Nc2ccc3c(c2)N(C)C(=O)CS3)c1", "Potency": "inconclusive: 20 µM [inhibitor, full curve]"}, {"smiles": "COc1ccc(CNCc2ccc(OC)c3ccccc23)cc1", "Potency": "inconclusive: 20 µM [inhibitor, single point]"}, {"smiles": "CN(C)c1ccc(Cc2cc3c(O)ccc(O)c3cc(Cc3ccc(N(C)C)cc3)c2=O)cc1", "Potency": "active: 3.16 µM"}, {"smiles": "C=CCn1c(SCc2nc3sc(C(=O)O)c(C)c3c(=O)[nH]2)nnc1-c1ccc(C(C)(C)C)cc1", "Potency": "active: 28.2 µM"}, {"smiles": "COc1ccc(C2c3c(n(CCc4ccccc4)cnc3=N)Oc3ccc4ccccc4c32)cc1OC", "note": "(centres undefined)", "Potency": "active: 56.2 µM"}, {"smiles": "Cc1cc(F)ccc1NC(=O)Cn1c(=O)ccc2cc(S(=O)(=O)N3CCC(C)CC3)ccc21", "Potency": "inactive"}, {"smiles": "CCN(CC)CCCNC(=O)CN1N=C(c2ccccc2)CCC1=O", "Potency": "inactive"}, {"smiles": "CC(Oc1ccc(Br)cc1)C(=O)Nc1cc(Cl)ccc1N1CCN(C)CC1", "note": "(centres undefined)", "Potency": "inconclusive: 39.8 µM [inhibitor, partial curve]"}, {"smiles": "O=C(NCCN1CCNCC1)c1ccccn1", "Potency": "active: 1.12 µM"}, {"smiles": "Cc1cccc(NC(=O)CSc2nc3ccc(NC(=O)COc4ccccc4F)cc3s2)c1", "Potency": "inconclusive: 89.1 µM [inhibitor, single point]"}, {"smiles": "O=C(CCSCc1ccccc1F)NCc1ccc(F)cc1", "Potency": "inactive"}, {"smiles": "COc1ccc(NC(=O)c2c(NC(=O)Cc3ccccc3)sc3c2CCCC3)cc1", "Potency": "inactive"}, {"smiles": "CCN(CC)c1ccc(/C=N/NC(=O)Nc2nonc2N)cc1", "Potency": "inconclusive: 39.8 µM [inhibitor, single point]"}, {"smiles": "COc1ccc(N2C(=S)N(C(=O)c3ccccc3)C(=Nc3ccccc3)C2=Nc2ccccc2)cc1", "Potency": "inconclusive: 2.82 µM [inhibitor, full curve]"}, {"smiles": "Cc1ccc(C(=O)NCc2ccco2)cc1S(=O)(=O)Nc1cccc(Cl)c1", "Potency": "inconclusive: 56.2 µM [inhibitor, partial curve, poor fit]"}, {"smiles": "O=C(COC(=O)CCNS(=O)(=O)c1ccccc1)Nc1ccc(OC(F)F)cc1", "Potency": "inactive"}, {"smiles": "N#Cc1ccc(-n2nccc2-c2cnc3n(c2=O)CCS3)cc1", "Potency": "active: 50.1 µM"}, {"smiles": "Cc1c(C(=O)N2CCC(C)CC2)c(S(=O)(=O)N2CCN(c3cccc(Cl)c3)CC2)c(C)n1C", "Potency": "inconclusive: 31.6 µM [inhibitor, partial curve]"}, {"smiles": "Cc1ccn2c(Nc3ccc4c(c3)OCCO4)c(-c3ccc(C)s3)nc2c1", "Potency": "inconclusive: 17.8 µM [inhibitor, full curve]"}, {"smiles": "CN(Cc1nc(-c2cccs2)no1)CC1(N2CCOCC2)CCCCC1", "Potency": "inactive"}, {"smiles": "COCc1cc(CN2CCN(CCCc3ccccc3)C(CCO)C2)ccc1OC", "note": "(centres undefined)", "Potency": "inconclusive: 89.1 µM [inhibitor, single point]"}, {"smiles": "O=C(O)Cc1ccc(S(=O)(=O)Nc2ccccc2C(=O)O)cc1", "Potency": "inconclusive: 28.2 µM [inhibitor, single point]"}, {"smiles": "O=c1c(S(=O)(=O)c2ccc(Cl)cc2)cn(Cc2ccc(F)cc2)c2ccc(F)cc12", "Potency": "inactive"}, {"smiles": "O=C(Nc1ccc(OC(F)(F)F)cc1)Oc1ccccc1N1CCCCC1", "Potency": "inactive"}, {"smiles": "COC(=O)c1sc(N2C(=O)C(O)=C(C(=O)c3ccc(C)o3)C2c2ccc(F)cc2)nc1C", "note": "(centres undefined)", "Potency": "inactive"}, {"smiles": "CCCC[n+]1c2ccccc2cc2ccccc21", "Potency": "active: 39.8 µM"}, {"smiles": "Cc1cccc(NC(=O)CSc2nnc([C@H](C)NC(=O)OC(C)(C)C)o2)c1C", "Potency": "inconclusive: 12.6 µM [inhibitor, partial curve, poor fit]"}, {"smiles": "O=[N+]([O-])c1cc(S(=O)(=O)N2CCCC2)ccc1N/N=C1/CCCc2ccccc21", "Potency": "inconclusive: 3.16 µM [inhibitor, partial curve]"}, {"smiles": "CCOC(=O)c1cc(-c2ccccc2)n(CCCC(=O)Nc2cc(C)ccc2OC)c1C", "Potency": "inconclusive: 31.6 µM [inhibitor, full curve, poor fit]"}]}]}
